Hit rate of the full screen: of about 39,000 compounds, about 220 (0.56%) showed activity. Some of the results follow.
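Note: static incubation at 37 °C against the wild-type strain, values averaged over two biological replicates.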

The test system of this test is Escherichia coli K-12 BW25113. Briefly: relative growth (OD600 normalised to plate interquartile mean) (fraction); higher = less growth inhibition, active = 0.2 or less. The settings on record: 50 µM; LB; incubation time: overnight (16-24 h).
For `CC(C)NC(=O)N(C)C[C@@H]1Oc2ccc(NS(=O)(=O)c3cccs3)cc2CC(=O)N([C@H](C)CO)C[C@H]1C`, the relative growth was inactive: 1.

With `COc1ccc(NC(=O)Nc2ccc3c(c2)C(=O)N([C@@H](C)CO)C[C@@H](C)[C@H](CN(C)Cc2ccc(C(F)(F)F)cc2)O3)cc1`, the relative growth was inactive: 1.06.

As for `COCC(=O)N1c2ccccc2C[C@H]1C(N)=O`, the relative growth is inactive: 1.

With `C[C@@H]1CN([C@H](C)CO)C(=O)Cc2cc(NC(=O)CCCCCC(=O)Nc3ccccc3N)ccc2O[C@H]1CN(C)Cc1ccccc1`, the relative growth was inactive: 0.988.

As to `Cc1ccc(S(=O)(=O)N(C)C[C@H]2Oc3c(NC(=O)c4cc(C)nn4C)cccc3C(=O)N([C@H](C)CO)C[C@H]2C)cc1`, the relative growth was inactive: 0.997.

Turning to `N[C@H](CSCSC[C@H](N)C(=O)O)C(=O)O`, the relative growth is inactive: 1.02.

Consider `NCC[C@@H]1CC[C@@H](NC(=O)Cc2ccncc2)[C@@H](CO)O1`, for which the relative growth is inactive: 0.994.

`CN1CCN(C(=O)C[C@H]2CC[C@@H]3[C@@H](COc4ccc(NC(=O)c5cccs5)cc4C(=O)N3C)O2)CC1`: the relative growth was inactive: 1.

For `Cc1noc(C)c1NC(=O)Nc1ccc2c(c1)C(=O)N([C@@H](C)CO)C[C@H](C)[C@H](CN(C)CC1CCCCC1)OCCCC[C@@H](C)O2`, the relative growth is inactive: 1.05.

As for `Cn1c(=O)c2c(ncn2CC(=O)O)n(C)c1=O`, the relative growth was inactive: 1.09.

`Cc1noc(C)c1S(=O)(=O)N(C)C[C@@H]1OCCCC[C@H](C)Oc2ccc(NS(C)(=O)=O)cc2C(=O)N([C@@H](C)CO)C[C@H]1C`: the relative growth is inactive: 0.987.

With `C[C@H](CO)N1C[C@H](C)[C@H](CN(C)CC2CC2)Oc2ccc(NC(=O)CCN3CCOCC3)cc2C1=O`, the relative growth is inactive: 1.01.

In the case of `Cc1noc(C)c1NC(=O)N[C@@H]1C=C[C@@H](CC(=O)N2CCN(C)CC2)O[C@H]1CO`, the relative growth is inactive: 0.99.

For `COc1ccc(NC(=O)N(C)C[C@@H]2OCCCC[C@@H](C)Oc3ccc(NC(=O)c4ccccc4)cc3C(=O)N([C@H](C)CO)C[C@@H]2C)cc1`, the relative growth is inactive: 0.998.

For the molecule `Cc1noc(C)c1NC(=O)Nc1ccc2c(c1)C(=O)N([C@@H](C)CO)C[C@H](C)[C@@H](CN(C)Cc1ccc(C(F)(F)F)cc1)OCCCC[C@@H](C)O2`, the relative growth is inactive: 0.986.

As for `COc1ccc(-c2cnc3c(c2)C(=O)N([C@H](C)CO)C[C@H](C)[C@H](CN(C)S(=O)(=O)c2cccc(OC)c2)O3)cc1`, the relative growth was inactive: 0.999.

In the case of `C[C@@H]1CN([C@@H](C)CO)C(=O)c2cc(NC(=O)NC3CCCCC3)ccc2O[C@@H]1CN(C)Cc1ccc(Oc2ccccc2)cc1`, the relative growth was inactive: 1.06.

With `COc1ccc(NC(=O)Nc2ccc3c(c2)C(=O)N([C@H](C)CO)C[C@H](C)[C@@H](CN(C)S(=O)(=O)c2ccc(C)cc2)OCCCC[C@H](C)O3)cc1`, the relative growth was inactive: 1.04.

Turning to `C[C@H]1CN([C@@H](C)CO)S(=O)(=O)c2ccc(Br)cc2O[C@H]1CN(C)C(=O)c1cccc(F)c1`, the relative growth is inactive: 1.02.

On to `CN(C)CCCNC(=O)C[C@@H]1CC[C@H]2[C@@H](COC[C@@H](O)CN2C(=O)c2cc(Cl)cc(Cl)c2)O1`, for which the relative growth was inactive: 1.01.

For `COc1ccc(NC(=O)N(C)C[C@@H]2Oc3ccc(NC(=O)Cn4cnnn4)cc3C(=O)N([C@@H](C)CO)C[C@@H]2C)cc1`, the relative growth was inactive: 0.988.

Regarding `COc1ccc(S(=O)(=O)Nc2ccccc2CN(C)C/C=C/c2ccc(Cl)cc2)cc1.O=P(=O)OO`, the relative growth was inactive: 1.01.

As for `Cc1noc(C)c1NC(=O)N(C)C[C@H]1Oc2ccc(NC(=O)c3ccncc3)cc2CC(=O)N([C@@H](C)CO)C[C@@H]1C`, the relative growth is inactive: 0.984.

On to `O=C(C[C@H]1C=C[C@@H](NC(=O)CN2CCOCC2)[C@H](CO)O1)NC1CCC1`, for which the relative growth was inactive: 0.999.

`COc1ccc(S(=O)(=O)Nc2ccc3c(c2)C(=O)N([C@@H](C)CO)C[C@H](C)[C@H](CN(C)C(=O)CCC(F)(F)F)OCCCC[C@H](C)O3)cc1`: the relative growth was inactive: 0.992.

Consider `Nc1ccccc1O`, for which the relative growth was inactive: 0.899.

As to `Cc1ccccc1S(=O)(=O)N1C[C@H](O)COC[C@@H]2O[C@H](CC(=O)N3CCN(C)CC3)CC[C@H]21`, the relative growth was inactive: 1.01.

In the case of `COc1ccc(NC(=O)Nc2ccc3c(c2)C(=O)N([C@@H](C)CO)C[C@H](C)[C@H](CN(C)C(=O)NC2CCCCC2)OCCCC[C@H](C)O3)cc1`, the relative growth was inactive: 1.02.

Turning to `Cc1cccc(OC[C@H](O)Cn2c(N3CCN(C)CC3)nc3c2c(=O)n(C)c(=O)n3C)c1`, the relative growth was inactive: 1.01.

Regarding `Nc1nnc([C@H]2CCCO2)s1`, the relative growth is inactive: 0.983.

`COCC(=O)Nc1ccc2c(c1)OC[C@@H](C)N(Cc1cccc(F)c1)C[C@H](C)[C@@H](OC)CN(C)C2=O`: the relative growth is inactive: 0.988.

For `C[C@@H]1CCCCO[C@H](CN(C)C(=O)Nc2ccc(F)cc2)[C@@H](C)CN([C@H](C)CO)C(=O)c2cc(NC(=O)Cc3ccccc3)ccc2O1`, the relative growth was inactive: 1.01.

With `Cc1ccc(-c2ccc3c(c2)O[C@H](CN(C)C(=O)Nc2ccc(C(F)(F)F)cc2)[C@@H](C)CN([C@@H](C)CO)S3(=O)=O)cc1`, the relative growth is inactive: 0.977.

For the molecule `C[C@@H]1CCCCO[C@H](CN(C)C(=O)Nc2ccc(C(F)(F)F)cc2)[C@@H](C)CN([C@H](C)CO)C(=O)c2cc(NS(=O)(=O)c3ccc(F)cc3)ccc2O1`, the relative growth is inactive: 0.984.

For `CC(=O)Oc1cc2c(c(C)c1OC(C)=O)CC=C1[C@@]2(C)CC[C@@]2(C)[C@H]3C[C@](C)(C(=O)O)CC[C@]3(C)CC[C@]12C`, the relative growth is inactive: 1.01.

For the molecule `C[C@H]1CN([C@@H](C)CO)C(=O)c2cc(NC(=O)CCCN(C)C)ccc2O[C@@H]1CN(C)S(=O)(=O)c1ccc(F)cc1`, the relative growth was inactive: 0.994.

Regarding `Cc1noc(C)c1S(=O)(=O)Nc1cccc2c1O[C@@H](CN(C)C(=O)Nc1ccc3c(c1)OCO3)[C@@H](C)CN([C@H](C)CO)C2=O`, the relative growth is inactive: 1.01.

With `C[C@@H]1CN([C@@H](C)CO)C(=O)c2c(c3ccccc3n2C)-c2ccccc2CO[C@@H]1CN(C)C(=O)Nc1ccc2c(c1)OCO2`, the relative growth is inactive: 1.03.

As for `C=CCNC(=O)C(=O)NC[C@H]1OCCCN1S(=O)(=O)c1ccccc1`, the relative growth is inactive: 1.

For `COc1ccc(S(=O)(=O)N(C)C[C@@H]2Oc3ccc(NS(=O)(=O)c4ccccc4)cc3CC(=O)N([C@H](C)CO)C[C@@H]2C)cc1`, the relative growth is inactive: 0.988.

`CN(C)C(=O)C[C@@H]1CC[C@H](NC(=O)C2CC2)[C@H](CO)O1`: the relative growth is inactive: 1.04.

Regarding `C[C@@H]1CCCCO[C@H](CN(C)Cc2ccc(C(=O)Nc3ccccc3N)cc2)[C@@H](C)CN([C@H](C)CO)C(=O)c2cc(N(C)C)ccc2O1`, the relative growth was inactive: 1.

In the case of `C[C@@H]1CN([C@H](C)CO)S(=O)(=O)c2ccc(C#Cc3ccccc3F)cc2O[C@@H]1CN(C)C(=O)Cc1cccnc1`, the relative growth was inactive: 1.01.

For `CC(C)[Si](C#C[Si](C(C)C)(C(C)C)C(C)C)(O[C@H](c1ccccc1)c1cn(Cc2ccccc2)nn1)C(C)C`, the relative growth was inactive: 0.979.

Regarding `C[C@H](CO)N1C[C@H](C)[C@H](CN(C)Cc2ccc(-c3ccccc3)cc2)Oc2ccc(NC(=O)NC3CCCCC3)cc2C1=O`, the relative growth is inactive: 1.04.

Take `C[C@@H]1CN([C@@H](C)CO)C(=O)c2cc(NC(=O)Cn3cnnn3)ccc2O[C@H]1CN(C)S(C)(=O)=O`: the relative growth is inactive: 1.

Consider `NC(=O)N1C(=O)[C@H]2[C@H](C1=O)[C@H]1C=C(CCCO)[C@@H]2[C@H](c2ccc(CN3CCCC3)cc2)N1Cc1sc2ccccc2c1Cl`, for which the relative growth is inactive: 1.02.

As for `C=CC[C@@H](CC(=O)N[C@H](CO)Cc1ccccc1)C(=O)NCCOC(=O)[C@H](CC=C)CC(=O)OC(C)(C)C`, the relative growth is inactive: 1.01.

Consider `C[C@@H]1CN([C@@H](C)CO)C(=O)Cc2cc(NC(=O)Nc3cccc4ccccc34)ccc2O[C@H]1CN(C)C(=O)Nc1ccc2c(c1)OCO2`, for which the relative growth was inactive: 1.02.

For the molecule `COc1ccc(NC(=O)Nc2ccc3c(c2)C(=O)N([C@@H](C)CO)C[C@@H](C)[C@@H](CN(C)Cc2ccc(C(F)(F)F)cc2)O3)cc1`, the relative growth is inactive: 0.955.

`COCCOC(=O)N1C(=O)[C@@]2(c3cc(C#Cc4ccc(OC)cc4)ccc31)[C@H](C(=O)NC[C@H](O)c1ccccc1)[C@H]1C(=O)O[C@H](c3ccccc3)[C@H](c3ccccc3)N1[C@@H]2c1ccc(O)cc1`: the relative growth was inactive: 1.05.

Turning to `COc1ccccc1C#Cc1ccc2c(c1)O[C@@H](CN(C)Cc1ccncc1)[C@@H](C)CN([C@@H](C)CO)S2(=O)=O`, the relative growth was inactive: 0.988.

`NCC1CCC(C(=O)O)CC1` (stereo not given): the relative growth was inactive: 1.12.

Take `C[C@H](NC(=O)[C@@H]1N[C@@H]2c3ccc(-c4ccc(C(=O)N(C)C)cc4)c(=O)n3C[C@@H]2[C@H]1CO)c1ccccc1`: the relative growth was inactive: 0.998.

As to `CC(C)(C)[S@](=O)N1Cc2cc(C(=O)NCc3ccncc3)nc(-c3cccc(-c4ccc(C#N)cc4)c3)c2[C@@H]1CCO`, the relative growth is inactive: 0.983.

Take `C[C@H]1CN([C@@H](C)CO)C(=O)Cc2cc(NC(=O)CCCCCC(=O)Nc3ccccc3N)ccc2O[C@@H]1CN(C)Cc1ccc(Oc2ccccc2)cc1`: the relative growth is inactive: 0.973.

As for `C=CCN1C(=O)[C@@]2(O[C@@H](CCn3cc(CCO)nn3)[C@H]([Si](C)(C)c3ccc(OC)cc3)[C@H]2C)c2cc(N3CCC3=O)ccc21`, the relative growth is inactive: 1.01.

Turning to `CN1CCN(C(=O)C[C@H]2CC[C@H]3[C@@H](COC[C@H](O)CN3C(=O)Nc3cc(Cl)cc(Cl)c3)O2)CC1`, the relative growth is inactive: 0.976.

Turning to `O=C1NCCN1CCNC(=S)NC1CC1`, the relative growth is inactive: 0.992.

Turning to `Cc1noc(C)c1S(=O)(=O)Nc1ccc2c(c1)C(=O)N([C@H](C)CO)C[C@@H](C)[C@H](CN(C)C(=O)Nc1ccccc1)O2`, the relative growth was inactive: 0.997.

Values taken from the supplement of paper PMC9446081.
